The other results are listed elsewhere or left out. Values were computed here from the reads of four pooled replicates and scatter widely.
molecular target: T1, Pho4 (S. cerevisiae) (UniProt P07270); experiment: relative binding free energy (BET-seq); higher = weaker binding; conditions: reference: library average
T1 sequence: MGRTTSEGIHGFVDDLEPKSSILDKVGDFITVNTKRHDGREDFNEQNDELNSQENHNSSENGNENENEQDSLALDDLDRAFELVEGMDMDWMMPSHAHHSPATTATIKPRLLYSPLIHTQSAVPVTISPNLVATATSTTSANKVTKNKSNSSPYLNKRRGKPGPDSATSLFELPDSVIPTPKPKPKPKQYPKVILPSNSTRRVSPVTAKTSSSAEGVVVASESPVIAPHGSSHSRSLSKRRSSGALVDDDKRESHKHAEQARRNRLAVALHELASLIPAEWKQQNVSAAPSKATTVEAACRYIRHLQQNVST

Relative binding free energy, 0.32 kcal/mol:
ATTTTCACGTGTGGCG

Relative binding free energy, -0.12 kcal/mol:
TGGGGCACGTGGGAGT
TTTACCACGTGGTGTC
TCGTGCACGTGGTTAA

Relative binding free energy, 0.05 kcal/mol:
TTTCGCACGTGTTGAA
AATCGCACGTGGGGAG
ATGAACACGTGTGGAA
AGGGACACGTGCAGGT
TAGGTCACGTGTTCAT
GATGCCACGTGTTTTT

Relative binding free energy, -0.07 kcal/mol:
CAACGCACGTGTGGGT
GGTGCCACGTGGCGGA
TGTTCCACGTGCGTGT

Relative binding free energy, 0.38 kcal/mol:
GGAGTCACGTGAGACG

Relative binding free energy, 0.23 kcal/mol:
ATGGTCACGTGAGTGT
TTTTTCACGTGCGTGG
GTGCACACGTGTATTG

Relative binding free energy, -0.16 kcal/mol:
CTTGTCACGTGGGCTT
GGGGCCACGTGGCTGT
AGGTACACGTGGTTAA
TGTGGCACGTGCGTTC

Relative binding free energy, -0.28 kcal/mol:
TGGACCACGTGGGGGA
TGTGCCACGTGTGGTT

Relative binding free energy, 0.09 kcal/mol:
TTGTACACGTGAATAT
TCCGTCACGTGCGTGT
GTCTGCACGTGTTGGG
TTAATCACGTGGTTGA

Relative binding free energy, 0.35 kcal/mol:
ATTTTCACGTGCGCGG
TTGGTCACGTGAAAGT

Relative binding free energy, -0.06 kcal/mol:
AGGTCCACGTGGTAGG
TGTGACACGTGGTCGC
TCGGGCACGTGGTTGG
TTGTGCACGTGCGGCG

Relative binding free energy, -0.11 kcal/mol:
GGGAGCACGTGGGCGG
CTTAACACGTGGTATT

Relative binding free energy, 0.2 kcal/mol:
TCGATCACGTGTAGGG
GCATTCACGTGGTTTG
GAGTGCACGTGAGTCG
TTTATCACGTGTGTGC
TCGATCACGTGGATTG

Relative binding free energy, 0.27 kcal/mol:
GATTACACGTGTAAGT
GTTTTCACGTGAGCAT
TCTTTCACGTGCTTGT
ATGAACACGTGATTAT

Relative binding free energy, 0.29 kcal/mol:
TTCTTCACGTGGGAGT
GTGGCCACGTGAGTGG
CTTTTCACGTGATTAA
CTTTTCACGTGTCTTG

Relative binding free energy, 0.03 kcal/mol:
GCCTGCACGTGTGTTG
ATGGGCACGTGTCTGA
GTGATCACGTGGTAGC
TTATGCACGTGTAGAA
TGGGTCACGTGTACTA
GCCTGCACGTGTGGGT
GCTGCCACGTGTGGTG
TGGGTCACGTGCAGAT
AGCCACACGTGTGGGG
TTGTACACGTGTTCGG
AGGAGCACGTGATGTT

Relative binding free energy, -0.05 kcal/mol:
GTAGGCACGTGGTAAG
GAGGGCACGTGTCGGT

Relative binding free energy, 0.16 kcal/mol:
AGTGCCACGTGATAGG
CTTATCACGTGTTTCG
TGTTTCACGTGGTCCT
TTCTTCACGTGGTAAG

Relative binding free energy, 0.25 kcal/mol:
TGTCGCACGTGAAAGG
CGCAGCACGTGAGGTT
GGATGCACGTGAAGAT
AGGATCACGTGGAAGT

Relative binding free energy, 0.17 kcal/mol:
GTATTCACGTGGTCGT

Relative binding free energy, -0.19 kcal/mol:
AGGGGCACGTGGGAGC
TGAGGCACGTGCTAGG
TGAAGCACGTGCGGTG

Relative binding free energy, -0.21 kcal/mol:
AAGGGCACGTGGCCTG
ATAAACACGTGGGTTA

Relative binding free energy, -0.22 kcal/mol:
TGGAGCACGTGGTCAG

Relative binding free energy, -0.01 kcal/mol:
CCAGGCACGTGTGGTG
ATGTGCACGTGCTGAG
TACTGCACGTGTTAGT
GAGTACACGTGTCTGG

Relative binding free energy, -0.1 kcal/mol:
GGACGCACGTGGTCTG

Relative binding free energy, 0.28 kcal/mol:
GCAGGCACGTGAATGT
GATTTCACGTGTGTCG
GCTGTCACGTGAGGTG

Relative binding free energy, -0.15 kcal/mol:
TGTATCACGTGGCCGG
ACAGACACGTGGGGGG
GGGCCCACGTGGGGGC
CAGGGCACGTGGTGGG

Relative binding free energy, 0.44 kcal/mol:
TAGTTCACGTGAGCTG

Relative binding free energy, 0.24 kcal/mol:
CGTAGCACGTGAGGAT
GCTATCACGTGGTCGG
ATTTGCACGTGATGGT

Relative binding free energy, -0.08 kcal/mol:
ATATACACGTGTTTGG
CGAGGCACGTGGTTCG
TTAGGCACGTGTAGCG
GGATACACGTGGGGGT
TCTTGCACGTGCGTGG

Relative binding free energy, 0.12 kcal/mol:
GGTTGCACGTGTTGTA
TTTTGCACGTGTAGAC
AGTAACACGTGTGGGT

Relative binding free energy, 0 kcal/mol:
AAGTGCACGTGTATTG
ATGGTCACGTGGCCGG
GTCAGCACGTGGCGTT
TGTAACACGTGGGGGG
GAATGCACGTGGTTTG

Relative binding free energy, -0.04 kcal/mol:
ATGGGCACGTGTGATT

Relative binding free energy, -0.03 kcal/mol:
TTAATCACGTGTTTAA
TTAGCCACGTGCGGGG
TATAACACGTGGAGGT
TGCCACACGTGTGGTG
CTTTACACGTGAGTGG
TCGCGCACGTGTTGGG

Relative binding free energy, -0.17 kcal/mol:
CGGTGCACGTGGGTGA
AGGGGCACGTGCTGTA
AGAACCACGTGGGGTG

Relative binding free energy, 0.33 kcal/mol:
TATTACACGTGAGTTA

Relative binding free energy, -0.02 kcal/mol:
AATTGCACGTGTTCGT
TGTTGCACGTGCCTGG
TTGGCCACGTGTAGGA
GTGTACACGTGGTTGC
TATTGCACGTGGTGTC
TAGGTCACGTGGCGGA

Relative binding free energy, -0.14 kcal/mol:
GGAAGCACGTGTATTG
ATGTGCACGTGGGGGG
GACCGCACGTGGTGGG
GGTGACACGTGGGTTG
CAGAGCACGTGGGTTT
GACTGCACGTGGGTTT

Relative binding free energy, 0.06 kcal/mol:
AATGGCACGTGGAATT
AGGAACACGTGGTGAA
GTAGACACGTGCTTGT
GTGTACACGTGGTGGG
TGTTGCACGTGATTTA
GGTCGCACGTGTGTGA
GCTTACACGTGTGGGG
CGAGTCACGTGGTATG
CAGAGCACGTGAGTGG

Relative binding free energy, 0.3 kcal/mol:
AGGTACACGTGAAGGA
AGGTTCACGTGCGATT
GAATGCACGTGAAGGG

Relative binding free energy, 0.15 kcal/mol:
TGGGTCACGTGTCGGC

Relative binding free energy, 0.08 kcal/mol:
TGGCTCACGTGGTTGT
GAGTGCACGTGGACGT
TTAGTCACGTGTAGCG
CGGAACACGTGTGTGG
TGCGACACGTGTCGGG

Relative binding free energy, 0.37 kcal/mol:
CGGTTCACGTGTGTGT

Relative binding free energy, 0.11 kcal/mol:
GATTGCACGTGAATGT
GTAAGCACGTGTTGTC
TAGGCCACGTGAGGGT
TGATCCACGTGTGAGT
GTGACCACGTGAGGTG

Relative binding free energy, 0.13 kcal/mol:
GGCTACACGTGGTATG

Relative binding free energy, 0.4 kcal/mol:
TTGTTCACGTGAACGG
GTGATCACGTGATGGA
ATTTTCACGTGAGCGA
ATTTCCACGTGAGGGT

Relative binding free energy, 0.31 kcal/mol:
CGGGTCACGTGATGGC
CAATTCACGTGCTGGG
GTATTCACGTGAGGTC
TTGCTCACGTGTCTTA
TGATACACGTGAAGTT

Relative binding free energy, 0.26 kcal/mol:
CAGGTCACGTGAATGG
GTCGGCACGTGAATGT
TTCTTCACGTGGAGTA

Relative binding free energy, 0.18 kcal/mol:
CATGTCACGTGCATTG
TTGATCACGTGGAGGA
TGCCTCACGTGTTTGT
TGGGTCACGTGTGTTG
ATGAGCACGTGAGGGT

Relative binding free energy, -0.09 kcal/mol:
GGTACCACGTGGTTTG
TAGGGCACGTGTTGGT
GTGTACACGTGGGAGC

Relative binding free energy, 0.01 kcal/mol:
CTTTGCACGTGGGAAA
GTATGCACGTGTGCGT
TTTCGCACGTGTGGAG
TTTTGCACGTGGAGGG
GTCTGCACGTGGTGGA

Relative binding free energy, 0.49 kcal/mol:
GGGTTCACGTGACGAG
GTTTTCACGTGAAGTA

Relative binding free energy, 0.19 kcal/mol:
GATGTCACGTGTTGGT
TTAGGCACGTGAAAAG
TGGTTCACGTGGTGGT
TAGCTCACGTGGGAGG
TGTTGCACGTGTGGTT

Relative binding free energy, 0.02 kcal/mol:
CGAGGCACGTGTGAGC
TTTCACACGTGTTATT
GTATACACGTGGGAGC
GAGATCACGTGGGTCG
TTTGTCACGTGCTGAT

Relative binding free energy, 0.41 kcal/mol:
AATATCACGTGAAGTA

Relative binding free energy, 0.21 kcal/mol:
GTATTCACGTGTATGG
GGTCGCACGTGACGTG
ATCTTCACGTGTGGCT
GGGAACACGTGCTTTG

Relative binding free energy, 0.36 kcal/mol:
GGGATCACGTGTAATT
AGCTTCACGTGATTTT

Relative binding free energy, 0.45 kcal/mol:
GATATCACGTGAGGTT
TTGTTCACGTGAAATG

Relative binding free energy, 0.07 kcal/mol:
ATTTGCACGTGGTGGT
AGTTACACGTGGGAGC
CGGAGCACGTGTGAGG
GGTTGCACGTGTACGG

Relative binding free energy, -0.18 kcal/mol:
AGTACCACGTGGGTGG
CGGGACACGTGGGCGT
GTTGCCACGTGGGTCT

Relative binding free energy, -0.24 kcal/mol:
TGACGCACGTGGTGTA
TGATGCACGTGGCATG

Relative binding free energy, 0.22 kcal/mol:
GAGGACACGTGATGGT
TGTGTCACGTGAGGAC
AGGTTCACGTGGCGGA

Relative binding free energy, -0.23 kcal/mol:
ATGGCCACGTGGGTTA

Relative binding free energy, 0.14 kcal/mol:
GAGCGCACGTGTAAGG
ATGCTCACGTGGATTG
ATGAACACGTGTGGGA
ATATGCACGTGACGGT
TATGTCACGTGCGTTT
ACGTTCACGTGTATTG

Relative binding free energy, 0.04 kcal/mol:
AGTGGCACGTGTTAAT
GTAGGCACGTGGAGAG
AGGTGCACGTGTGGCT
TTTGTCACGTGGTATA
GCGTGCACGTGTGTAT

Relative binding free energy, 0.34 kcal/mol:
GATTTCACGTGTGCGT
ATTTTCACGTGAGGGG
TGGTGCACGTGAAGGC
AGCTTCACGTGTTTTT

Relative binding free energy, 0.1 kcal/mol:
GAGGGCACGTGATTGA

Relative binding free energy, -0.2 kcal/mol:
TGAGGCACGTGGCTTT
TAGGACACGTGGGTGC

Reference: the BET-seq Pho4 binding data (Le et al. 2018)
